Among all 310,000 compounds or so, about 14,000 (4.5%) showed an effect of 50% or more. Effects have a minus sign here. This is one part of the list.
Molecular target: human ether-à-go-go-related gene (hERG) potassium channel (human, UniProt Q12809)
Experiment: primary screen, population patch clamp on CHO cells stably expressing hERG
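Further: peak tail current of the secondary pulse compared with the same well before compound.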

Sequence of human ether-à-go-go-related gene (hERG) potassium channel (Q12809 whole entry, looked up): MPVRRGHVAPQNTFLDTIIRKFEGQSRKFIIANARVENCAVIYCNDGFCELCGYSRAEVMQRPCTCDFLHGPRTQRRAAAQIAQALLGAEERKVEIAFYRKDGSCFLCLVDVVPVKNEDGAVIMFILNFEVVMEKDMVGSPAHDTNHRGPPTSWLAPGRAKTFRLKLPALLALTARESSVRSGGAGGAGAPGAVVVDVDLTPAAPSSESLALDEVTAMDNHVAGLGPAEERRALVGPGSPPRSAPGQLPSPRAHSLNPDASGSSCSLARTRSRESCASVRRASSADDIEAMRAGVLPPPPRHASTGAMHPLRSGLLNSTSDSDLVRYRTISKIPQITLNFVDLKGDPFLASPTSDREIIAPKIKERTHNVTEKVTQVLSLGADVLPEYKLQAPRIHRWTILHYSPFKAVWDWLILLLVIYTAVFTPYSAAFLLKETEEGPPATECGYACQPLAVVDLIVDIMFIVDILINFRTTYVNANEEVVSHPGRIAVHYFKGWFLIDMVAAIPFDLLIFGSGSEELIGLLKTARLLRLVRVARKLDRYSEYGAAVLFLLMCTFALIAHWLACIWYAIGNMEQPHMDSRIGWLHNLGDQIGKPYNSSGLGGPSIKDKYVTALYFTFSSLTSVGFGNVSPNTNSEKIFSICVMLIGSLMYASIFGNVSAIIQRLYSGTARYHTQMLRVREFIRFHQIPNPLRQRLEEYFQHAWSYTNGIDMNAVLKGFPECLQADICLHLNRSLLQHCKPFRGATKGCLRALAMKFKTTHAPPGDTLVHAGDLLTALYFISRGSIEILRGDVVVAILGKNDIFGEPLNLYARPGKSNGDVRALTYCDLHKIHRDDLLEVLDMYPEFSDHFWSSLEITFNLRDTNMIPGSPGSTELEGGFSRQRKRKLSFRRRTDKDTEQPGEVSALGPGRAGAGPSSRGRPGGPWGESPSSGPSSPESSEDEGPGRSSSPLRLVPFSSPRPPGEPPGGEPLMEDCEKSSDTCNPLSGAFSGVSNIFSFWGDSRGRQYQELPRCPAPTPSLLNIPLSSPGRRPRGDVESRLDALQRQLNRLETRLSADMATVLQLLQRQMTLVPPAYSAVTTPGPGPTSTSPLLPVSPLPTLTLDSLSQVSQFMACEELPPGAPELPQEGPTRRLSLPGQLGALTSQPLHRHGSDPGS

Compound	hERG current change (%, negative = inhibition) at 10uM [%]
Cc1cccc(C(=O)NC2CC(C)(C)NC(C)(C)C2)c1	11.4
O=Cc1cn(Cc2cccc(F)c2)c2ccccc12	2.72
COc1cccc(-n2c(N)c(C#N)c3ccc([N+](=O)[O-])cc3c2=O)c1	-8.42
Cc1ccc(-c2nn3c(C)nnc3c3ccccc23)cc1S(=O)(=O)N(C)CCO	-30.6
O=C(CSCc1ccc(Cl)cc1)Nc1ccc(O)cc1C(=O)O	11.4
CC(=O)CCC(=O)OCC(=O)c1ccc(C(F)(F)F)cc1	7.95
Cc1[nH]c2ccccc2c1C(=O)COC(=O)c1ccc([N+](=O)[O-])s1	5.03
N/C(=N\OC(=O)COc1cc(Cl)c(Cl)cc1Cl)c1ccncc1	9.49
NC(=O)c1ccccc1NC(=O)NC1CCCCC1	-6.68
CC(=O)N1CCSc2ccc(S(=O)(=O)NCCc3cccc(C)c3)cc21	-20.7
COc1ccc(OC)c(C2=NS(=O)(=O)N(C)C(C(=O)Nc3ccc(C(C)=O)cc3)=C2)c1	5.6
Cc1ccc(S(=O)(=O)Nc2cccc(CP(=O)(c3ccccc3)c3ccccc3)c2)cc1	-8.1
Oc1ccc(-c2nc3ccccn3c2NCc2ccco2)cc1	-25.2
NC(=O)C1CCN(C(=O)c2ccc(NC3=NC4CS(=O)(=O)CC4S3)cc2)CC1 (centres unmarked)	15.8
CCc1ccc(NC(=O)CCS(=O)(=O)c2ccc(Cl)cc2)cc1	6.96
O=C(C1=NN(c2ccccc2)C(=O)CC1)N1CCc2ccccc2C1	16.7
Cc1nc(N2N=C3/C(=C/c4ccc(F)cc4)CCCC3C2c2ccc(F)cc2)sc1C(=O)N(C)C (centres unmarked)	-7.27
O=C(NCCCN1CCCC1=O)c1cccc(NS(=O)(=O)c2ccccc2)c1	5.2
COc1ccccc1N(C)S(=O)(=O)c1ccc(C(=O)OCC(=O)NCCC2=CCCCC2)cc1	-4.24

Compound	hERG current change (%, negative = inhibition) at 10uM [%]
CCC(C)NC(=O)C(NS(=O)(=O)c1ccc2c(c1)c(=O)n(C)c(=O)n2C)c1ccccc1 (centres unmarked)	-4.81
COc1ccc(CNC(=O)C(C)N(Cc2ccccc2OC)C(=O)c2snc(C(N)=O)c2N)cc1 (centres unmarked)	8.38
Brc1ccc(OCCOc2cccc3cccnc23)cc1	17.4
CN1CCN(NC(=O)COc2cccc(C(F)(F)F)c2)CC1	11.1
CCCCn1c(=O)c(C(=O)NCc2ccncc2)c(O)c2ccccc21	-44
Cc1c(NC(=O)COC(=O)Cc2ccc(F)cc2)c(=O)n(-c2ccccc2)n1C	-14.2
O=C(CCCCCNc1nc(=S)[nH]c2ccccc12)NCCc1ccc(Cl)cc1	9.51
N#CCCn1cc(C(=O)Nc2ccccc2Cl)c(-c2ccc([N+](=O)[O-])cc2)n1	-64.4
O=S(=O)(c1ccc(Br)cc1)N1CCN(c2ccc3nnc(-c4ccccc4)n3n2)CC1	-32
O=C(CSc1nnc(-c2ccco2)n1CC1CCCO1)c1ccccc1 (centres unmarked)	-9.68
Cc1cc(C)n2nc(C(=O)OCC(=O)Nc3ccc(C)c(S(=O)(=O)N(C)C)c3)nc2n1	-11.6
CC(=O)Nc1cc(OC(C)=O)c2nonc2c1OC(C)=O	-11.7
CCN(CC(=O)NCc1ccc(F)cc1)C(=O)/C=C/c1cccs1	-40.9
COc1ccc(-c2nn(Cc3ccccc3)cc2C(=O)N2CCN(c3ncccn3)CC2)cc1	-27
Clc1ccccc1N/N=C/c1ccc2c(c1)OCO2	7.9
Cc1ccsc1/C=N/N1CCN(c2ccccn2)CC1	-8.96
Cn1c(CC(=O)Nc2ccccc2)cc2ccccc21	20
Brc1ccc(OCCCOc2cccc3cccnc23)cc1	6.35
CC(C)=CCCC(C)CN1CCC(O)CC1 (centres unmarked)	-2.96

Compound	hERG current change (%, negative = inhibition) at 10uM [%]
COc1cccc(NC(=S)NC2CC(C)(C)NC(C)(C)C2)c1	3.98
CC(C(=O)O)N(C(=O)c1ccccc1)c1ccc(F)cc1 (centres unmarked)	30.2
CC(C)(C)c1nnc(N/N=C/c2ccc(Br)cc2)n(N)c1=O	-6.3
COc1ccc(N2CCN(S(=O)(=O)CCNC(=O)c3cc(=O)c4ccccc4o3)CC2)cc1	18.7
CCOC(=O)c1cnc2c(-c3ccc(Cl)cc3)c(C)nn2c1N	20.7
Nc1ccc(N2CCCCC2)c2nonc12	-39.3
C=CCN1C(=O)C2C3C=CC(C2C1=O)C1C2C(=O)N(CC=C)C(=O)C2C31 (centres unmarked)	10.5
CNCC[C@H](Oc1cccc2ccccc12)c1cccs1.Cl	-36
Cc1sc2ncn(CC(=O)NCCCC(=O)N3CCC(C)CC3)c(=O)c2c1C	6.66
Nn1c(Cc2cccc3ccccc23)nnc1SCc1c(F)cccc1Cl	-14.7
Cc1occc1C(=O)N(C)Cc1nc(-c2ccc(Cl)cc2)no1	1.74
CCOP(=O)(OCC)C(NC(=O)c1ccc(Cl)cc1)=C(Cl)Cl	3.96
O=C(O)c1cccc(S(=O)(=O)Nc2ccccc2Cc2ccccc2)c1	13.3
COc1ccc(C2CC(c3ccccc3)=NN2C(=O)CCC(=O)O)cc1 (centres unmarked)	8.77
Cc1ccc(OCCNC(=O)C(=O)NCc2ccco2)cc1	25.7
CCNC(=S)N/N=C1\C(=O)c2cccc3cccc1c23	16.7
Cc1onc(-c2c(F)cccc2Cl)c1C(=O)O/N=C(\N)c1ccc([N+](=O)[O-])o1	-16.8
Cc1nc2c([nH]c3ccccc32)c(=O)n1N	21.4

Source: PMC4336329 (PLoS ONE, 2015)
